{"source": "PubChem BioAssay (NCATS)", "note": "Inconclusive results, whose numbers are uncertain, are shown with a selection of clear calls. No potency is given beside an inconclusive call; the fits are too rough. Activity calls are given as the source filed them. Calls come from the whole dose curve; as a rule, active = well fitted inhibition curve with a large enough effect; inconclusive = small, poorly fitted or top-dose-only effect; inactive = flat fitted curve, though single readings scatter. % is set by controls: 0 for no effect and ±100 for the full control effect; potency is the fitted concentration of half-maximal effect; tags give direction and shape of the fitted curve.", "data": [{"target": "Fructose-bisphosphate aldolase A (Oryctolagus cuniculus) (UniProt P00883)", "sequence (P00883 whole entry, looked up)": "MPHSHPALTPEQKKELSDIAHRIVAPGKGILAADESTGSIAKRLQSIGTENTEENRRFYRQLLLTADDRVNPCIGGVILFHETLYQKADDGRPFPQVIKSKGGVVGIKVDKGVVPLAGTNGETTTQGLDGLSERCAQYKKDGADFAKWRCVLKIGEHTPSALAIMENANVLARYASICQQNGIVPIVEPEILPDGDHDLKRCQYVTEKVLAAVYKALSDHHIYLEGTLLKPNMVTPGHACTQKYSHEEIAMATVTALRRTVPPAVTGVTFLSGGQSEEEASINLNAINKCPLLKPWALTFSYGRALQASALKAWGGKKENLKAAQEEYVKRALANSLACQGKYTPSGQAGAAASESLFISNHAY", "assay": "qHTS Assay for Inhibitors of Fructose-1,6-bisphosphate Aldolase from Giardia Lamblia: Rabbit FBPA Selectivity (AID 2794); note: nearly all actives have a fitted effect of over 60% in size", "details": "Rabbit muscle FBPA enzyme inhibition, selectivity counter-screen; series mostly up to 57.5 µM; activity, negative = inhibition: at the top concentration", "how_it_was_run": "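To triage Class I aldolase inhibitors, rabbit FBPA activity is followed through a glyceraldehyde-3-phosphate-linked enzyme cascade feeding AmpLite Red. Compounds (up to 57.5 uM final) sit 10 min with coupling enzymes before substrate; fluorescence is read 20 min later.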", "values": [{"smiles": "CC(C)c1ccc(S(=O)(=O)/N=C2/C=C(Sc3ncn[nH]3)C(=O)c3ccccc32)cc1", "Potency": "active: 15.8 µM"}, {"smiles": "Cc1nnc(SCC2=C(C(=O)O)N3C(=O)C(NC(=O)C(C)n4nc(C(F)(F)F)cc4C)C3SC2)s1", "note": "(configuration not stated)", "activity, negative = inhibition": "inactive: 2.28%"}, {"smiles": "O=S(=O)(c1ccc(F)cc1)N1CCN(CC(O)COc2ccccc2F)CC1", "note": "(configuration not stated)", "activity, negative = inhibition": "inactive: 0.696%"}, {"smiles": "CC(C)n1c(=O)[nH][nH]c1=S", "Potency": "active: 31.6 µM"}, {"smiles": "O=C(Nc1nc(-c2ccccn2)cs1)c1cccc(-n2cnnn2)c1", "activity, negative = inhibition": "inactive: -10%"}, {"smiles": "COc1ccc(OC)c(C2CC(=O)N3CN(c4cccc(Cl)c4C)CSC3=C2C#N)c1", "note": "(configuration not stated)", "Potency": "inconclusive [inhibitor, partial curve]"}, {"smiles": "CCn1c(SCC(=O)c2ccc(O)c(O)c2)nnc1-c1ccccc1", "activity, negative = inhibition": "inactive: -28.9%"}, {"smiles": "O=c1c(O)cccc2cc(O)c(O)c(O)c12", "Potency": "active: 16.3 µM"}, {"smiles": "COc1cccc(/C=N/n2c(-c3cc(C)[nH]n3)n[nH]c2=S)c1O", "Potency": "inconclusive [inhibitor, partial curve]"}, {"smiles": "COC(=O)c1cc(C)nc2c1C(=O)C(=O)C=C2N1CCOCC1", "Potency": "active: 1.41 µM"}, {"smiles": "Cc1cc(=O)n2cccc(O)c2n1", "Potency": "inconclusive [inhibitor, partial curve]"}, {"smiles": "COC(=O)Oc1nsnc1N1CCOCC1", "Potency": "inconclusive [inhibitor, single point]"}]}]}
